Results on 38 molecules are retold here after the supplement of paper PMC9446081.

Out of some 39,000 compounds screened, about 220 (0.56%) showed activity. The list shows a part of the results.
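Also: static incubation at 37 °C against the wild-type strain, values averaged over two biological replicates.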

In the assay the test system is Escherichia coli K-12 BW25113. Description: relative growth (OD600 normalised to plate interquartile mean) (fraction); higher = less growth inhibition, active = 0.2 or less. As to conditions: 50 µM; LB; incubation time: overnight (16-24 h).
For `C[C@@H]1CCCCO[C@@H](CN(C)S(=O)(=O)c2ccc(F)cc2)[C@H](C)CN([C@H](C)CO)C(=O)c2cc(NS(=O)(=O)c3cn(C)cn3)ccc2O1`, the relative growth is inactive: 1.01. Take `C[C@@H]1CCCCO[C@@H](CN(C)C(=O)Cc2ccccc2)[C@@H](C)CN([C@@H](C)CO)C(=O)c2cc(NC(=O)Nc3ccc(F)cc3)ccc2O1`: the relative growth is inactive: 1. For `O=[N+]([O-])c1ncn(Cc2ccccn2)n1`, the relative growth is inactive: 0.926. For `C[C@H](CO)N1C[C@H](C)[C@H](CN(C)Cc2ccc(C(=O)Nc3ccccc3N)cc2)Oc2c(NS(=O)(=O)c3cn(C)cn3)cccc2C1=O` the value was inactive: 1.01; for `C[C@@H]1CCCCO[C@@H](CN(C)Cc2ccc(C(=O)O)cc2)[C@H](C)CN([C@@H](C)CO)C(=O)c2cc(NC(=O)c3ccccc3)ccc2O1`, inactive: 1.02. As to `C[C@H](CO)N1C[C@H](C)[C@@H](CN(C)Cc2ccc(C(F)(F)F)cc2)Oc2ccc(NC(=O)Nc3ccc(F)cc3)cc2C1=O`, the relative growth was inactive: 1.02. For `C[C@H]1CN([C@@H](C)CO)C(=O)Cc2cc(NC(=O)Cc3ccccc3)ccc2O[C@H]1CN(C)C(=O)Nc1ccc(C(F)(F)F)cc1` the value was inactive: 1.01.

Regarding `CNC(=O)NCc1ccc2c(c1)OCO2`, the relative growth was inactive: 1.

As for `C[C@H]1CN([C@@H](C)CO)C(=O)c2cccc(NC(=O)Nc3cccc4ccccc34)c2O[C@@H]1CN(C)C(=O)Nc1ccc2c(c1)OCO2`, the relative growth was inactive: 0.994. For `C[C@H]1CN([C@@H](C)CO)C(=O)c2cc(Br)cnc2O[C@@H]1CN(C)Cc1cccc(C(=O)O)c1` the value was inactive: 1; for `CN(C)CCc1c[nH]c2ccc(CC3COC(=O)N3)cc12` (stereo not drawn), inactive: 0.951. Turning to `CCc1oc2ccccc2c1C(=O)c1cc(Br)c(O)c(Br)c1`, the relative growth is inactive: 1.03. For `C[C@@H]1CN([C@H](C)CO)C(=O)c2cc(C#CCN(C)C)cnc2O[C@H]1CN(C)C(=O)c1ccc2c(c1)OCO2` the value was inactive: 1.01; for `CCN(CC)[C@H]1CCS(=O)(=O)C1`, inactive: 1. Consider `COCC(=O)N(C)C[C@H]1Oc2cc(C#Cc3cccnc3)ccc2S(=O)(=O)N([C@@H](C)CO)C[C@@H]1C`, for which the relative growth was inactive: 0.99. With `Cc1ccc(S(=O)(=O)Nc2ccc3c(c2)C(=O)N([C@@H](C)CO)C[C@@H](C)[C@H](CN(C)CC2CCCCC2)OCCCC[C@@H](C)O3)cc1`, the relative growth was inactive: 0.974. As to `C[C@@H]1CN([C@@H](C)CO)C(=O)c2cc(C#CCN(C)C)cnc2O[C@H]1CN(C)S(=O)(=O)c1ccccc1`, the relative growth is inactive: 0.992.

On to `CN1C(=O)c2cc(NC(=O)c3ccc(C(F)(F)F)cc3)ccc2OC[C@H]2O[C@H](CC(=O)NC3Cc4ccccc4C3)CC[C@@H]21`, for which the relative growth is inactive: 1.04. For `COc1ccc(NC(=O)N(C)C[C@H]2OCCCC[C@@H](C)Oc3ccc(NC(=O)Cc4ccccc4)cc3C(=O)N([C@H](C)CO)C[C@@H]2C)cc1` the value was inactive: 0.989; for `O/N=C/c1c(Cl)cccc1Cl`, inactive: 0.971; for `C[C@@H]1CN([C@H](C)CO)C(=O)c2cc(NS(=O)(=O)c3cn(C)cn3)ccc2O[C@@H]1CN(C)C(=O)Nc1ccc2c(c1)OCO2`, inactive: 0.995.

As for `C[C@H](CO)N1C[C@H](C)[C@@H](CN(C)C(=O)Nc2cccc(F)c2)OCc2ccccc2-c2ccccc2C1=O`, the relative growth is inactive: 0.987. In the case of `CC(C)OC[C@H]1Cn2c(nc3c2c(=O)n(C)c(=O)n3C)O1`, the relative growth was inactive: 0.995. Consider `COc1ccc(CN(C)C[C@H]2OCCCC[C@H](C)Oc3ccc(NS(=O)(=O)c4ccc(F)cc4)cc3C(=O)N([C@@H](C)CO)C[C@@H]2C)cc1`, for which the relative growth is inactive: 0.926. For `C[C@H](CO)N1C[C@H](C)[C@@H](CN(C)S(=O)(=O)c2ccc(F)cc2)Oc2c(NC(=O)Nc3cccc4ccccc34)cccc2C1=O` the value was inactive: 0.969; for `Cc1ccc(S(=O)(=O)N(C)C[C@H]2OCCCC[C@H](C)Oc3ccc(NC(=O)Nc4ccc(C(F)(F)F)cc4)cc3C(=O)N([C@H](C)CO)C[C@@H]2C)cc1`, inactive: 1.02. Consider `Cc1noc(C)c1NC(=O)Nc1ccc2c(c1)C(=O)N([C@@H](C)CO)C[C@H](C)[C@@H](CN(C)S(=O)(=O)c1ccc(Cl)cc1)OCCCC[C@@H](C)O2`, for which the relative growth was inactive: 0.988.

As for `C[C@H]1CN([C@@H](C)CO)C(=O)c2cccc(NC(=O)c3cnccn3)c2O[C@@H]1CN(C)C(=O)NC1CCCCC1`, the relative growth was inactive: 1. For `C[C@@H]1CN([C@@H](C)CO)C(=O)Cc2cc(NC(=O)Nc3ccc4c(c3)OCO4)ccc2O[C@@H]1CN(C)Cc1ccc(Cl)c(Cl)c1` the value was inactive: 1.02; for `C[C@@H]1CN([C@H](C)CO)C(=O)c2cc(NC(=O)Nc3cccc4ccccc34)ccc2O[C@@H]1CN(C)C(=O)Nc1cccc2ccccc12`, inactive: 1.04; for `C[C@H](CO)N1C[C@H](C)[C@@H](CN(C)Cc2ccc(C(F)(F)F)cc2)OCCCC[C@H](C)Oc2ccc(NC(=O)c3ccncc3)cc2C1=O`, inactive: 0.899.

Turning to `C[C@H](CO)N1C[C@H](C)[C@H](CN(C)Cc2cccc3c2OCCCO3)OCc2ccccc2-c2ccccc2C1=O`, the relative growth was inactive: 1.01. For `CCCC#Cc1ccc2c(c1)O[C@H](CN(C)Cc1ccc3c(c1)OCO3)[C@@H](C)CN([C@H](C)CO)S2(=O)=O` the value was inactive: 1.03; for `COc1ccc(S(=O)(=O)N(C)C[C@H]2OCCCC[C@@H](C)Oc3ccc(NC(=O)C4CCCCC4)cc3C(=O)N([C@H](C)CO)C[C@@H]2C)cc1`, inactive: 1.01. For `C[C@@H]1CN([C@H](C)CO)S(=O)(=O)c2ccc(/C=C/c3ccccc3)cc2O[C@@H]1CN(C)C(=O)Nc1cc(F)ccc1F` the value was inactive: 0.997; for `COc1ccc(NC(=O)N(C)C[C@@H]2OCCCC[C@H](C)Oc3ccc(NC(=O)Nc4c(C)noc4C)cc3C(=O)N([C@@H](C)CO)C[C@H]2C)cc1`, inactive: 1; for `CC(C)CC#Cc1cnc2c(c1)C(=O)N([C@H](C)CO)C[C@H](C)[C@@H](CN(C)S(=O)(=O)c1cn(C)cn1)O2`, inactive: 0.982. Turning to `C[C@@H]1CCCCO[C@@H](CN(C)Cc2ccc3c(c2)OCO3)[C@H](C)CN([C@H](C)CO)C(=O)c2cc(NC(=O)Nc3cccc4ccccc34)ccc2O1`, the relative growth is inactive: 1.01.
